# Results published in PubChem BioAssay AID1347165 (National Center for Advancing Translational Sciences (NCATS), 2019).
# About 5,700 (2.6%) of roughly 220,000 compounds were called active. Inconclusive results, whose numbers are uncertain, are shown with a selection of clear calls. Calls follow the shape of the dose curve; as a rule, active = well fitted inhibition curve with a large enough effect; inconclusive = small, poorly fitted or top-dose-only effect; inactive = no such curve, though single readings can be large or run the other way. A potency beside an inconclusive call is a rough fit, not a confirmed value.
# Molecular target: Lysine-specific demethylase 5B (Homo sapiens) (UniProt Q9UGL1)
# Experiment: Primary screen for KDM5B Histone Demethylases FDH-coupled qHTS; also: nearly all actives have a fitted effect of over 70% in size; as to activity change, negative = inhibition: 0% is about no effect
# Details: FDH-coupled NADH fluorescence (FDH is formaldehyde dehydrogenase); activity change, negative = inhibition: at 57.7 µM (top of the series) unless noted
# Procedure, shortened: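 KDM5BΔAP (200 nM final) in 50 mM HEPES pH 7.5, 0.01% Tween-20 was preincubated 10 min at RT with compound over a concentration range. Substrate mix (H3K4me3 12.5 µM, α-KG 25 µM, Fe²⁺, ascorbate, NAD⁺, FDH) was added, and NADH fluorescence change over 30 min gave dose-response curves.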
# Potency is read from the fitted curve at half-maximal effect; tags tell the direction and shape of the fitted curve.
# UniProt Q9UGL1, sequence (Q9UGL1 whole entry, looked up): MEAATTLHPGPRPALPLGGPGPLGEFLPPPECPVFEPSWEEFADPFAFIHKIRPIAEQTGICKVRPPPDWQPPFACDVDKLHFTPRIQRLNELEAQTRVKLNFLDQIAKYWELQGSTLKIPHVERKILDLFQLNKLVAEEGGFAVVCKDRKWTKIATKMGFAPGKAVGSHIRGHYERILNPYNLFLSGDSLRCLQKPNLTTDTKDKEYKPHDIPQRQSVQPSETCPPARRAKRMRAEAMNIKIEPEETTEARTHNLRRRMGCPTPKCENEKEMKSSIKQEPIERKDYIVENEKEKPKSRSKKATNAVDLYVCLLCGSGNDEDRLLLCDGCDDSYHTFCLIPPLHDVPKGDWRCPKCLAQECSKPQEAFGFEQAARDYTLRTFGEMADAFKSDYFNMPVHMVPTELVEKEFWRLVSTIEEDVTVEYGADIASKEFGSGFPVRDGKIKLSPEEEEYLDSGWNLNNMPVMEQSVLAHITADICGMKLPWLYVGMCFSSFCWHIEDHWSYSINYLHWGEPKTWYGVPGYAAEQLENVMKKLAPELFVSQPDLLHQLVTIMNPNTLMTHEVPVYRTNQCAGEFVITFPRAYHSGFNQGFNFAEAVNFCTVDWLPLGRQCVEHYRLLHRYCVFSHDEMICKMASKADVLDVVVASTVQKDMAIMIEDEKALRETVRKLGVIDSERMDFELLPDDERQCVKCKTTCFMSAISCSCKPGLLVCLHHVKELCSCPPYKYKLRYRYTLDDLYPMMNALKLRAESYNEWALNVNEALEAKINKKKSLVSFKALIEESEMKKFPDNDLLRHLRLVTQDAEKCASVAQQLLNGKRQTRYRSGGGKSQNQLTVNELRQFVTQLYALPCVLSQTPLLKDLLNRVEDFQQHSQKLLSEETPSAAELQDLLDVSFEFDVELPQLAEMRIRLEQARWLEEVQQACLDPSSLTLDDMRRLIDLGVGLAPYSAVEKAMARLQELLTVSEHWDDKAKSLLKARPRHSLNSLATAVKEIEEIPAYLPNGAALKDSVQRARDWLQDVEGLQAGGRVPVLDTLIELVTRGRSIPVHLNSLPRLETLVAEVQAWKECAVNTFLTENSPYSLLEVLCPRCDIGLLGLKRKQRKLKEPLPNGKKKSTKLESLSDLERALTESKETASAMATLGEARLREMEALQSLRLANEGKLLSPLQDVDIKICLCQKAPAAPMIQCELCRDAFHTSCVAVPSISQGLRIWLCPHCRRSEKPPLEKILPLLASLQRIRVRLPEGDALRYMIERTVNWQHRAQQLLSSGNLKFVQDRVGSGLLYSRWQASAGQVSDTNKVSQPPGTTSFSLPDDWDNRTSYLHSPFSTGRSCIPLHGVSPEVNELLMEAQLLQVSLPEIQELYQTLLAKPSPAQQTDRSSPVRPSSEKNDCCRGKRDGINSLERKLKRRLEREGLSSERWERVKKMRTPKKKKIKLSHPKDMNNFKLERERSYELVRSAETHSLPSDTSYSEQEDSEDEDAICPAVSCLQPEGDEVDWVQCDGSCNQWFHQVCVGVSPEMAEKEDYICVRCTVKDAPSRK
SMILES,Potency,"activity change, negative = inhibition"
NC(=O)Nc1ccc(C(=O)Nc2cccc3cccnc23)cc1,"inconclusive: 39.8 µM [inhibitor, single point]",
COc1ccc(C(NC(=O)Cc2ccccc2)c2ccc(OC)c(OC)c2)cc1OC,,inactive: -1.28%
CCC(C)c1ccc(NC(=S)Nc2ccc(N(CC)CC)cc2)cc1 (stereo unspecified),"inconclusive: 15.8 µM [inhibitor, partial curve, poor fit]",
Cc1c(CC(=O)NCc2ccc(F)cc2)c(=O)oc2c(C)c(O)ccc12,"inconclusive: 1.78 µM [inhibitor, full curve, poor fit]",
CC(Oc1ccc(F)cc1)C(=O)N1CCC(c2nc3ccccc3s2)CC1 (stereo unspecified),"inconclusive: 28.2 µM [inhibitor, partial curve, poor fit]",
O=C(NC1CCCC1)C1CCCN(C2CCN(Cc3ccncc3)CC2)C1 (stereo unspecified),"inconclusive: 10 µM [inhibitor, partial curve, poor fit]",
Cc1ccc(NC(=O)CCn2c(=O)c3cccn3c3ccccc32)cc1C,"inconclusive: 25.1 µM [inhibitor, partial curve, poor fit]",
COC(=O)[C@@H]1Cc2ncn(Cc3ccc(Cl)cc3)c2CN1Cc1ccc(CO)o1,"inconclusive: 35.5 µM [inhibitor, single point]",
Cc1ccc(-n2c(=O)c3cccnc3n2CC(=O)Nc2ccc(Br)cc2)cc1C,"inconclusive: 28.2 µM [inhibitor, partial curve, poor fit]",
COC(=O)c1ccc(-c2ccc(C=O)o2)cc1,,inactive: 41.6%
Cc1ccc(CN2CCC(CNC(=O)Nc3ccc(Cl)cc3)C2)cc1 (stereo unspecified),,inactive: -28.5%
Cc1cc(=O)oc2cc(OCC(=O)N3CCCC3)ccc12,"inconclusive: 28.2 µM [inhibitor, partial curve, poor fit]",
CC(=O)Nc1ccc(C(=O)NC2CCN(c3cc(-c4ccc(Cl)cc4)[nH]n3)CC2)cc1,"inconclusive: 17.8 µM [inhibitor, single point]",
CC(=O)Nc1ncc2c(n1)CC(c1ccc(N(C)C)cc1)CC2=O (stereo unspecified),,inactive: -22.1%
CCn1nnnc1SCc1nnc(-c2c(-c3ccccc3)noc2C)o1,,inactive: 15.9%
CO[C@@H]1CO[C@H]2[C@@H]1OC[C@@H]2NS(C)(=O)=O,"inconclusive: 31.6 µM [inhibitor, partial curve, poor fit]",
CCCCOC(=O)c1ccc(NC(=O)c2cc3c(=O)n4cccc(C)c4nc3s2)cc1,"inconclusive: 1.58 µM [inhibitor, full curve, poor fit]",
O=C(NCc1ccc(F)cc1)c1cc(C2CC2)nc2onc(C3CCNCC3)c12,,inactive: -24.3% [at 115 µM]
CCCCN(C)CCNC(=O)c1c2c(nc3ccccc13)C(=O)N(C1CCCCC1)C2,"inconclusive: 35.5 µM [inhibitor, partial curve, poor fit]",
O=C(O)CC/C(=N\Nc1ccc(Cl)cc1)c1cccs1,"inconclusive: 39.8 µM [inhibitor, single point]",
CCCNC(=O)CCc1nnc2ccc(N3CCN(c4cccc(OC)c4)CC3)nn12,"inconclusive: 28.2 µM [inhibitor, single point]",
CN(CCCS(=O)(=O)[O-])c1ccc(/C=C/c2ccc3ccccc3[n+]2C)cc1,"inconclusive: 28.2 µM [inhibitor, single point]",

SMILES,Potency,"activity change, negative = inhibition"
COCCN1C(=O)c2ccccc2C(C(=O)Nc2ccc3[nH]ccc3c2)C12CCCC2 (stereo unspecified),"inconclusive: 20 µM [inhibitor, partial curve, poor fit]",
Fc1ccccc1CC1CCN(CC2[C@H]3CNC[C@@H]23)CC1 (stereo partly specified),,inactive: 13.8%
O=C(c1cocn1)N1CCNc2cnc(Nc3cccc(C(F)(F)F)c3)nc2C1,"inconclusive: 39.8 µM [inhibitor, partial curve, poor fit]",
O=C(c1c(F)cccc1F)N1CCC2(CC1)N=C(c1ccc(Cl)cc1)NO2,"inconclusive: 17.8 µM [inhibitor, partial curve]",
COc1ccccc1NC(=O)c1c(NCc2ccc(OC)c(OC)c2OC)sc2c1CCC2,"inconclusive: 14.1 µM [inhibitor, partial curve, poor fit]",
O=C(NC(NC(=O)c1cccc(Cl)c1)c1ccccc1)c1cccc(Cl)c1,,inactive: -0.371%
O=C(CCc1ccc(O)cc1)N[C@H]1CC[C@H](Nc2nccc(-c3cccnc3)n2)C1,"inconclusive: 31.6 µM [inhibitor, partial curve, poor fit]",
CCOc1ccc(NC(=O)c2cnc(N3CCCC3)nc2C)cc1,,inactive: -3.5%
Cc1cc(NC(=O)COC(=O)c2csc(NCc3ccccc3)n2)ccc1N1CCCC1,,inactive: -10.3%
N#Cc1nc(COc2ccc(Br)cc2)oc1NCc1ccco1,"inconclusive: 15.8 µM [inhibitor, partial curve, poor fit]",
CN(CC1CCOCC1)C(=O)CC1C(=O)NCCN1CC(c1ccccc1)c1ccccc1 (stereo unspecified),"inconclusive: 28.2 µM [inhibitor, single point]",
COC(=O)[C@@H]1Cc2c([nH]c3ccccc23)[C@H]2C[C@H](NCCCn3ccnc3)C[C@@H](c3ccccc3F)N21,"inconclusive: 28.2 µM [inhibitor, single point]",
COc1ccccc1/C=C/c1nc(C#N)c(NCCCN(C)C)o1,"inconclusive: 25.1 µM [inhibitor, partial curve, poor fit]",
CCc1ccc(NC(=O)c2sc3nc(C)c(Cl)c(C)c3c2NC(=O)c2ccccc2OC)cc1,,inconclusive: -40.6% [inhibitor]
CCC(=O)Nc1ccc(Cl)c(-c2nc3cc(C)ccc3o2)c1,"inconclusive: 22.4 µM [inhibitor, partial curve, poor fit]",
Cc1cccc(C2(c3cccc(C)c3)CC2C(=O)N/N=C/C=C/c2ccccc2)c1 (stereo unspecified),,inactive: 20.2%
O=C(N/N=C/c1ccsc1)c1cccc(C(F)(F)F)c1,"inconclusive: 2.51 µM [inhibitor, full curve, poor fit]",
COC(=O)c1ccc(Oc2coc3cc(OCc4ccc(Cl)cc4)ccc3c2=O)cc1,,inactive: 23.4%
Cc1cccc(-n2ncc3c(NC4CCCCCC4)ncnc32)c1,"inconclusive: 35.5 µM [inhibitor, partial curve, poor fit]",
Cc1ccc2ncccc2c1Cn1ccnc1-c1cc2n(n1)CCCNC2,"inconclusive: 20 µM [inhibitor, partial curve, poor fit]",
O=C(C1CCCC1)N1CCC2(CC1)CC(=O)N(c1ccccc1)c1ccccc1O2,,inactive: -3.94%
Cc1cc(C)n(CCc2nc3c4ccccc4nc(N4CCN(c5ccccc5)CC4)n3n2)n1,"inconclusive: 31.6 µM [inhibitor, single point]",

SMILES,Potency,"activity change, negative = inhibition"
Cc1ccc(/C=N/NC(=O)c2cccc(N(C)C)c2)cc1,,inactive: 20.6%
CC(=O)Nc1ccc(CNCc2nc(C)cs2)cc1,,inactive: -15.8%
COc1ccc(OC)c(CNC(=O)Cc2ccc(NC(=O)N3CCSc4ncccc43)cc2)c1,"inconclusive: 20 µM [inhibitor, partial curve, poor fit]",
O=C(N1CCOCC1)N1CCN(C2CCNCC2)C(=O)C1,"inconclusive: 89.1 µM [inhibitor, partial curve]",
CCOC(=O)c1cnc2c(C)cccc2c1Nc1ccc(C(C)=O)cc1,,inactive: -10.4%
CCOC(=O)C1(C)C=C(Nc2cccc(C(=O)O)c2)C(=O)N1c1cccc(C(=O)O)c1 (stereo unspecified),"inconclusive: 25.1 µM [inhibitor, single point]",
COC(=O)c1cc(-c2cccs2)nc2ccccc12,"inconclusive: 20 µM [inhibitor, partial curve, poor fit]",
CCCCc1nn2c(=O)cc(COC(=O)c3ccc(NC(=O)c4ccccc4C)cc3)nc2s1,"inconclusive: 22.4 µM [inhibitor, partial curve, poor fit]",
Cc1cc(F)ccc1NS(=O)(=O)c1ccc(-n2cccn2)cc1,,inconclusive: -42.5% [inhibitor]
CCOCc1cccc(CN)c1,,inactive: 25.6%
C=CC[C@H]1CC(C)=C[C@H](CC=C)N1Cc1ccc(CN(C)S(C)(=O)=O)o1,active: 14.1 µM,
COc1ccc2nc(NC(=O)c3cc(=O)c4ccc(C)cc4o3)sc2c1,,inactive: -3.64%
COc1nccnc1NC1CCN(C(=O)c2ccco2)CC1,active: 25.1 µM,
COc1cccc(CNC(=O)c2nnn3cc(C)[nH]c(=O)c23)c1,"inconclusive: 35.5 µM [inhibitor, partial curve, poor fit]",
COc1ccc(Nc2cc(C(=O)NCCCN3CCN(c4ccc(OC)cc4)CC3)c3ccccc3n2)cc1,"inconclusive: 22.4 µM [inhibitor, single point]",
CCN(Cc1ccc(OC)c(F)c1)C(=O)CN1CCC(c2nc3ccccc3s2)CC1,,inactive: 10.9%
Cc1oc(C)c2c(=O)cc(-c3ccc4c(c3)OCO4)cc(OC(=O)c3cccc(Br)c3)c12,"inconclusive: 15.8 µM [inhibitor, partial curve, poor fit]",
O=C(c1n[nH]c2ccccc12)N1CCc2c(nc3cc(-c4ccccc4Cl)[nH]n3c2=O)C1,"inconclusive: 39.8 µM [inhibitor, single point]",
CCN(CC)C(=O)[C@@H]1C[C@H](NC(=O)COC)CN1Cc1ccsc1,"inconclusive: 12.6 µM [inhibitor, partial curve]",
COC(=O)CCNC(=O)c1ccc(-c2ccccc2)cc1,,inactive: 19.2%
Cc1ccc(CNCc2ccc(-c3ccc(C(C)O)cc3)o2)cc1 (stereo unspecified),"inconclusive: 14.1 µM [inhibitor, single point]",
COC[C@@H]1CN(C(=O)c2cc[nH]c(=O)c2)C[C@H]1c1ccncc1,"inconclusive: 31.6 µM [inhibitor, partial curve, poor fit]",
